# Measurements taken from patent US8828401B2, “Cytotoxic peptides and antibody drug conjugates thereof” (Pfizer Inc., priority 2011, dated 2014).
# B1: hu28-vc6780 (conjugate)
# heavy: EVQLVESGGGLVQPGGSLRLSCAASGFTFRDYGMTWVRQAPGKGLEWVAYISSGSNYIYYAEAVKGRFTISRDNAKNSLYLQMNSLRAEDTAVYYCARRGPFVLDAWGQGTLVTVSS[human IgG1 constant region left out]
# light: DIQMTQSPSSLSASVGDRVTITCKASQSINRYLHWYQQKPGKAPKLLIYNANGLQTGVPSRFSGSGSGTDFTLTISSLQPEDFATYYCLQHNTWPDTFGGGTKVEIKRTVAAPSVFIFPPSDEQLKSGTASVVCLLNNFYPREAKVQWKVDNALQSGNSQESVTEQDSKDSTYSLSSTLTLSKADYEKHKVYACEVTHQGLSSPVTKSFNRGEC
# Legend:
# [1] = test system: OVCAR3 (ovarian cancer); assay: In vitro cytotoxicity assay with anti-Notch ADCs (MTS); format: cell-based
# Description: (§1) The effects of anti-Notch ADCs were assessed on 1) cell lines endogenously expressing Notch protein: HCC2429 (lung cancer), OVCAR3 (ovarian cancer) and MDA-MB-468 (breast cancer), 2) cell lines engineered to over-express Notch protein: MDA-MB-468/hNotch and U2OS/hNotch, and 3) a negative control cell line (SW900) using an MTS cellular viability indicator (Promega, Madison, Wis.). These cell lines were cultured with increasing concentrations of anti-Notch ADCs comprising humanized anti-Notch antibodies, hu28 and hu75, and rat-human chimeric anti-Notch antibodies, ch28 and ch75, conjugated to various linker-payload combinations of the present invention. As a specificity control for the anti-Notch-ADCs, non-targeted control-ADCs (huNeg8.8-ADCs or ch2H6-ADCs) were also tested on the same cell lines. After four days, viability of each culture was assessed. IC50 values were calculated by logistic non-linear regression and presented as ng Ab/mL. The drug antibody ratio (DAR) is also provided.
# [2] = test system: MDA-MB-468/hNotch; assay: as above; format: cell-based
# Description: as §1
# [3] = test system: HCC2429 (lung cancer); assay: as above; format: cell-based
# Description: as §1
# [4] = test system: MDA-MB-468 breast xenografts; assay: MDA-MB-468 breast xenografts with anti-Notch ADCs; format: in vivo, female SCID Hairless Outbred (SHO) mice; conditions: for tumor volume (mm^3 ± SEM): vc6780 study
# Description: Humanized anti-Notch antibodies, hu28 and hu75, and rat-human chimeric anti-Notch antibodies, ch28 and ch75, were conjugated to various linker-payload combinations and tested in 37622A1 non-small cell lung cancer (NSCLC), HCC2429 lung cancer, MDA-MB-468 breast cancer and N87 gastric cancer xenograft models. For each model described below the first dose was given on Day 0. The tumors were measured at least once a week and their volume was calculated with the formula: tumor volume (mm^3)=0.5×(tumor width^2)(tumor length). The mean tumor volumes (±S.E.M.) for each treatment group were calculated having a maximum of 10 animals and a minimum of 6 animals to be included.
# Similar in vivo experiments were performed with the MDA-MB-468 breast cancer cell line as described above. […] To generate xenografts, female SCID Hairless Outbred (SHO) mice were orthotopically implanted with 10×10^6 MDA-MB-468 cells containing 50% Matrigel (BD Biosciences) in the mammary fat pad. When the tumors reached a volume of 250 to 450 mm^3, the tumors were staged to ensure uniformity of the tumor mass among various treatment groups. The MDA-MB-468 breast model was dosed intraveneously Q4dx4 with PBS vehicle, humanized anti-Notch ADCs and control huNeg-8.8 ADCs at the doses provided in Tables 14 and 15.
# [5] = first of two individual repeats
# [6] = second of two individual repeats
molecule,measurement,setting,value
B1,IC50 (ng Ab/mL),[1],17 ng Ab/mL
same,IC50 (ng Ab/mL),[2]; [5],1.3 ng Ab/mL
same,IC50 (ng Ab/mL),[2]; [6],3 ng Ab/mL
same,IC50 (ng Ab/mL),[3]; [5],148 ng Ab/mL
same,IC50 (ng Ab/mL),[3]; [6],2050 ng Ab/mL
same,effect on growth of MDA-MB-468 breast xenografts (in words),"[4]; humanized ADCs, Q4dx4, doses of Tables 14 and 15",inhibited growth of MDA-MB-468 breast xenografts in a dose-dependent manner
same,tumor volume (mm^3 ± SEM),"[4]; Dose 1 mg/kg Q4dx4 iv, DAY 0",342 ± 16 mm^3
same,tumor volume (mm^3 ± SEM),"[4]; Dose 1 mg/kg Q4dx4 iv, DAY 4",462 ± 22 mm^3
same,tumor volume (mm^3 ± SEM),"[4]; Dose 1 mg/kg Q4dx4 iv, DAY 7",452 ± 30 mm^3
same,tumor volume (mm^3 ± SEM),"[4]; Dose 1 mg/kg Q4dx4 iv, DAY 11",512 ± 35 mm^3
same,tumor volume (mm^3 ± SEM),"[4]; Dose 1 mg/kg Q4dx4 iv, DAY 14",507 ± 38 mm^3
same,tumor volume (mm^3 ± SEM),"[4]; Dose 1 mg/kg Q4dx4 iv, DAY 19",538 ± 47 mm^3
same,tumor volume (mm^3 ± SEM),"[4]; Dose 1 mg/kg Q4dx4 iv, DAY 22",551 ± 48 mm^3
same,tumor volume (mm^3 ± SEM),"[4]; Dose 1 mg/kg Q4dx4 iv, DAY 25",575 ± 55 mm^3
same,tumor volume (mm^3 ± SEM),"[4]; Dose 1 mg/kg Q4dx4 iv, DAY 28",654 ± 74 mm^3
same,tumor volume (mm^3 ± SEM),"[4]; Dose 1 mg/kg Q4dx4 iv, DAY 32",653 ± 82 mm^3
same,tumor volume (mm^3 ± SEM),"[4]; Dose 1 mg/kg Q4dx4 iv, DAY 35",734 ± 89 mm^3
same,tumor volume (mm^3 ± SEM),"[4]; Dose 1 mg/kg Q4dx4 iv, DAY 40",761 ± 99 mm^3
same,tumor volume (mm^3 ± SEM),"[4]; Dose 1 mg/kg Q4dx4 iv, DAY 43",816 ± 122 mm^3
same,tumor volume (mm^3 ± SEM),"[4]; Dose 1 mg/kg Q4dx4 iv, DAY 46",859 ± 126 mm^3
same,tumor volume (mm^3 ± SEM),"[4]; Dose 1 mg/kg Q4dx4 iv, DAY 49",948 ± 178 mm^3
same,tumor volume (mm^3 ± SEM),"[4]; Dose 1 mg/kg Q4dx4 iv, DAY 53",1008 ± 192 mm^3
same,tumor volume (mm^3 ± SEM),"[4]; Dose 3 mg/kg Q4dx4 iv, DAY 0",342 ± 18 mm^3
same,tumor volume (mm^3 ± SEM),"[4]; Dose 3 mg/kg Q4dx4 iv, DAY 4",394 ± 33 mm^3
same,tumor volume (mm^3 ± SEM),"[4]; Dose 3 mg/kg Q4dx4 iv, DAY 7",399 ± 24 mm^3
same,tumor volume (mm^3 ± SEM),"[4]; Dose 3 mg/kg Q4dx4 iv, DAY 11",380 ± 25 mm^3
same,tumor volume (mm^3 ± SEM),"[4]; Dose 3 mg/kg Q4dx4 iv, DAY 14",401 ± 30 mm^3
same,tumor volume (mm^3 ± SEM),"[4]; Dose 3 mg/kg Q4dx4 iv, DAY 19",438 ± 39 mm^3
same,tumor volume (mm^3 ± SEM),"[4]; Dose 3 mg/kg Q4dx4 iv, DAY 22",414 ± 41 mm^3
same,tumor volume (mm^3 ± SEM),"[4]; Dose 3 mg/kg Q4dx4 iv, DAY 25",491 ± 37 mm^3
same,tumor volume (mm^3 ± SEM),"[4]; Dose 3 mg/kg Q4dx4 iv, DAY 28",497 ± 68 mm^3
same,tumor volume (mm^3 ± SEM),"[4]; Dose 3 mg/kg Q4dx4 iv, DAY 32",524 ± 69 mm^3
same,tumor volume (mm^3 ± SEM),"[4]; Dose 10 mg/kg Q4dx4 iv, DAY 0",335 ± 9 mm^3
same,tumor volume (mm^3 ± SEM),"[4]; Dose 10 mg/kg Q4dx4 iv, DAY 4",395 ± 19 mm^3
same,tumor volume (mm^3 ± SEM),"[4]; Dose 10 mg/kg Q4dx4 iv, DAY 7",350 ± 19 mm^3
same,tumor volume (mm^3 ± SEM),"[4]; Dose 10 mg/kg Q4dx4 iv, DAY 11",248 ± 26 mm^3
same,tumor volume (mm^3 ± SEM),"[4]; Dose 10 mg/kg Q4dx4 iv, DAY 14",154 ± 23 mm^3
same,tumor volume (mm^3 ± SEM),"[4]; Dose 10 mg/kg Q4dx4 iv, DAY 19",65 ± 17 mm^3
same,tumor volume (mm^3 ± SEM),"[4]; Dose 10 mg/kg Q4dx4 iv, DAY 22",25 ± 16 mm^3
same,tumor volume (mm^3 ± SEM),"[4]; Dose 10 mg/kg Q4dx4 iv, DAY 25",26 ± 19 mm^3
same,tumor volume (mm^3 ± SEM),"[4]; Dose 10 mg/kg Q4dx4 iv, DAY 28",15 ± 15 mm^3
same,tumor volume (mm^3 ± SEM),"[4]; Dose 10 mg/kg Q4dx4 iv, DAY 32",0 ± 0 mm^3
same,tumor volume (mm^3 ± SEM),"[4]; Dose 10 mg/kg Q4dx4 iv, DAY 35",0 ± 0 mm^3
same,tumor volume (mm^3 ± SEM),"[4]; Dose 10 mg/kg Q4dx4 iv, DAY 40",0 ± 0 mm^3
same,tumor volume (mm^3 ± SEM),"[4]; Dose 10 mg/kg Q4dx4 iv, DAY 43",0 ± 0 mm^3
same,tumor volume (mm^3 ± SEM),"[4]; Dose 10 mg/kg Q4dx4 iv, DAY 46",0 ± 0 mm^3
same,tumor volume (mm^3 ± SEM),"[4]; Dose 10 mg/kg Q4dx4 iv, DAY 49",0 ± 0 mm^3
same,tumor volume (mm^3 ± SEM),"[4]; Dose 10 mg/kg Q4dx4 iv, DAY 53",0 ± 0 mm^3
same,tumor volume (mm^3 ± SEM),"[4]; Dose 10 mg/kg Q4dx4 iv, DAY 56",0 ± 0 mm^3
same,tumor volume (mm^3 ± SEM),"[4]; Dose 10 mg/kg Q4dx4 iv, DAY 60",0 ± 0 mm^3
same,tumor volume (mm^3 ± SEM),"[4]; Dose 10 mg/kg Q4dx4 iv, DAY 63",0 ± 0 mm^3
